The supplement of paper PMC4967469
By IC50 is meant the dose at which the fit gives 50% viability; where the fit passes the top or lowest dose, that dose stands as a limit. The AUC spans the tested range (256-fold, ending at the top dose) of the same fit; it is 1 without any effect and falls as sensitivity rises. For part of these data: An inferred top dose comes from the curve model; the source does not state it.

Key:
Experiment in all cases: Viability of human cancer cell lines after 72 h of drug (GDSC screen)
Gefitinib = compound: COc1cc2ncnc(Nc3ccc(F)c(Cl)c3)c2cc1OCCCN1CCOCC1 [Gefitinib]; settings: top dose 0.5 µM
Experimental: (§1)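 Human cancer cell lines in 384-well plates, medium with 10% serum, drug for 72 h over a 256-fold dose range (nine 2-fold or five 4-fold steps up to the top dose). Adherent lines were fixed and stained with the nucleic acid dye Syto60, suspension lines read with resazurin; signal relative to control wells, capped at 0 and 100%. One two-parameter sigmoid per drug and line, fitted in a mixed model over all curves with the slope shared within a line.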

Vinorelbine = compound: CCC1=C[C@@H]2CN(C1)Cc1c([nH]c3ccccc13)[C@@](C(=O)OC)(c1cc3c(cc1OC)N(C)[C@H]1[C@@](O)(C(=O)OC)[C@H](OC(C)=O)[C@]4(CC)C=CCN5CC[C@]31[C@@H]54)C2 [Vinorelbine]; settings: top dose 0.064 µM; top dose inferred
Experimental: as §1

NU-7441 = compound: O=c1cc(N2CCOCC2)oc2c(-c3cccc4c3sc3ccccc34)cccc12 [NU-7441]; settings: top dose 2 µM; top dose inferred
Experimental: as §1

WHI-P97 = compound: COc1cc2ncnc(Nc3cc(Br)c(O)c(Br)c3)c2cc1OC [WHI-P97]; settings: top dose 10.24 µM; top dose inferred
Experimental: as §1

QL-XI-92 = compound: C=CC(=O)Nc1cc(NC(=O)c2ccc(C)c(NC(=O)c3ccno3)c2)cc(C(F)(F)F)c1 [QL-XI-92]; settings: top dose 10.24 µM; top dose inferred
Experimental: as §1

EHT 1864 = compound: O=c1cc(CN2CCOCC2)occ1OCCCCCSc1ccnc2cc(C(F)(F)F)ccc12 [EHT 1864]; settings: top dose 10 µM; top dose inferred
Experimental: as §1

XL-184 = compound: COc1cc2nccc(Oc3ccc(NC(=O)C4(C(=O)Nc5ccc(F)cc5)CC4)cc3)c2cc1OC [XL-184]; settings: top dose 5.12 µM; top dose inferred
Experimental: as §1

AG-014699 = compound: CNCc1ccc(-c2[nH]c3cc(F)cc4c3c2CCNC4=O)cc1 [AG-014699]; settings: top dose 5 µM; top dose inferred
Experimental: as §1

Phenformin = compound: N=C(N)NC(=N)NCCc1ccccc1 [Phenformin]; settings: top dose 4000 µM; top dose inferred
Experimental: as §1

Cell Line	AUC (Gefitinib)	IC50 (Gefitinib) [µM]	AUC (Vinorelbine)	IC50 (Vinorelbine) [µM]	AUC (NU-7441)	IC50 (NU-7441) [µM]	AUC (WHI-P97)	IC50 (WHI-P97) [µM]	AUC (QL-XI-92)	IC50 (QL-XI-92) [µM]	AUC (EHT 1864)	IC50 (EHT 1864) [µM]	AUC (XL-184)	IC50 (XL-184) [µM]	AUC (AG-014699)	IC50 (AG-014699) [µM]	AUC (Phenformin)	IC50 (Phenformin) [µM]
LN-18 (glioma, adherent)	0.994	> 0.5	0.912	0.061	0.957	> 2	0.994	> 10.2	0.993	> 10.2	0.979	> 10	0.967	> 5.12	0.994	> 5	0.837	1980
LNZTA3WT4 (glioma, adherent)	0.989	> 0.5	0.798	0.0298	0.989	> 2	0.981	> 10.2	0.983	> 10.2	0.98	> 10	0.948	> 5.12	0.973	> 5	0.772	1520
LOU-NH91 (lung squamous cell carcinoma, adherent)	0.881	> 0.5	0.863	0.0635	0.986	> 2	0.938	> 10.2	0.979	> 10.2	0.986	> 10	0.966	> 5.12	0.986	> 5	0.828	2790
LS-180 (large intestine, adherent)	0.963	> 0.5	0.61	0.00839	0.918	> 2	0.982	> 10.2	0.982	> 10.2	0.985	> 10	0.957	> 5.12	0.984	> 5	0.941	> 4000
LU-135 (small cell lung carcinoma, suspension)	0.988	> 0.5	0.55	0.00533	0.953	> 2	0.991	> 10.2	0.851	5.86	0.971	> 10	0.891	4.17	0.932	> 5	0.97	> 4000
M059J (glioma, adherent)	0.972	> 0.5	0.685	0.0138	0.976	> 2	0.971	> 10.2	0.86	9.84	0.983	> 10	0.926	> 5.12	0.971	> 5	0.791	1960
MC-IXC (neuroblastoma, adherent)	0.974	> 0.5	0.437	0.00281	0.994	> 2	0.992	> 10.2	0.92	8.09	0.939	9.51	0.996	> 5.12	0.881	2.91	0.959	> 4000
MDA-MB-361 (breast, adherent)	0.936	> 0.5	0.632	0.00924	0.972	> 2	0.979	> 10.2	0.976	> 10.2	0.943	> 10	0.967	> 5.12	0.989	> 5	0.925	> 4000
ME-180 (cervix, adherent)	0.915	> 0.5	0.726	0.0181	0.952	> 2	0.923	> 10.2	0.876	> 10.2	0.968	> 10	0.868	5	0.959	> 5	0.852	3290
MEL-JUSO (melanoma, adherent)	0.984	> 0.5	0.523	0.00465	0.961	> 2	0.98	> 10.2	0.937	> 10.2	0.916	> 10	0.912	> 5.12	0.939	> 5	0.515	276
MES-SA (uterus, adherent)	0.992	> 0.5	0.438	0.00279	0.979	> 2	0.988	> 10.2	0.987	> 10.2	0.984	> 10	0.992	> 5.12	0.99	> 5	0.991	> 4000
MFE-280 (endometrium, adherent)	0.982	> 0.5	0.883	> 0.064	0.966	> 2	0.932	> 10.2	0.935	> 10.2	0.982	> 10	0.803	3.39	0.982	> 5	0.739	1480
MFE-296 (endometrium, adherent)	0.977	> 0.5	0.586	0.00701	0.939	> 2	0.976	> 10.2	0.985	> 10.2	0.977	> 10	0.946	> 5.12	0.985	> 5	0.955	> 4000
MG-63 (osteosarcoma, adherent)	0.981	> 0.5	0.486	0.00363	0.897	> 2	0.984	> 10.2	0.984	> 10.2	0.908	> 10	0.984	> 5.12	0.903	> 5	0.853	3940
MHH-ES-1 (Ewing sarcoma, adherent)	0.986	> 0.5	0.474	0.00341	0.98	> 2	0.897	> 10.2	0.937	> 10.2	0.876	9.67	0.885	> 5.12	0.586	0.537	0.861	3310
MIA-PaCa-2 (pancreas, adherent)	0.985	> 0.5	0.542	0.00527	0.905	> 2	0.984	> 10.2	0.984	> 10.2	0.944	> 10	0.985	> 5.12	0.971	> 5	0.81	2360
MKN28 (stomach, adherent)	0.954	> 0.5	0.471	0.00333	0.97	> 2	0.981	> 10.2	0.976	> 10.2	0.929	> 10	0.961	> 5.12	0.965	> 5	0.746	1290
MOG-G-CCM (glioma, adherent)	0.964	> 0.5	0.57	0.0064	0.958	> 2	0.968	> 10.2	0.81	6.55	0.979	> 10	0.864	> 5.12	0.983	> 5	0.571	403
MOG-G-UVW (glioma, adherent)	0.977	> 0.5	0.555	0.00563	0.94	> 2	0.986	> 10.2	0.922	> 10.2	0.965	> 10	0.859	4.06	0.938	> 5	0.773	1520
MOLT-4 (lymphoblastic leukaemia, suspension)	0.968	> 0.5	0.537	0.00493	0.962	> 2	0.972	> 10.2	0.943	> 10.2	0.968	> 10	0.904	4.58	0.984	> 5	0.61	471
MS751 (cervix, adherent)	0.947	> 0.5	0.549	0.00539	0.973	> 2	0.989	> 10.2	0.985	> 10.2	0.976	> 10	0.978	> 5.12	0.977	> 5	0.706	904
NB12 (neuroblastoma, adherent)	0.955	> 0.5	0.494	0.00383	0.976	> 2	0.963	> 10.2	0.828	9.5	0.793	6.46	0.931	> 5.12	0.934	> 5	0.966	> 4000
NCI-H596 (lung adenocarcinoma, adherent)	0.978	> 0.5	0.921	> 0.064	0.941	> 2	0.974	> 10.2	0.982	> 10.2	0.952	> 10	0.898	> 5.12	0.97	> 5	0.968	> 4000
NCI-H630 (large intestine, adherent)	0.972	> 0.5	0.851	0.0544	0.958	> 2	0.974	> 10.2	0.988	> 10.2	0.947	> 10	0.942	> 5.12	0.987	> 5	0.485	227
NCI-H647 (non-small cell lung carcinoma, adherent)	0.981	> 0.5	0.699	0.015	0.982	> 2	0.956	> 10.2	0.762	3.83	0.963	> 10	0.924	> 5.12	0.926	> 5	0.746	1320
NCI-H650 (lung adenocarcinoma, adherent)	0.979	> 0.5	0.794	0.0329	0.9	> 2	0.96	> 10.2	0.924	> 10.2	0.981	> 10	0.969	> 5.12	0.98	> 5	0.681	849
NCI-H841 (small cell lung carcinoma, adherent)	0.986	> 0.5	0.646	0.0102	0.988	> 2	0.976	> 10.2	0.962	> 10.2	0.89	> 10	0.934	> 5.12	0.988	> 5	0.26	51.5
NCI-H1048 (small cell lung carcinoma, adherent)	0.984	> 0.5	0.647	0.00972	0.961	> 2	0.932	> 10.2	0.985	> 10.2	0.894	9.91	0.834	2.86	0.843	3.03	0.818	1980
NCI-H1435 (lung adenocarcinoma, semi-adherent)	0.983	> 0.5	0.825	0.0329	0.942	> 2	0.966	> 10.2	0.993	> 10.2	0.988	> 10	0.97	> 5.12	0.992	> 5	0.801	1700
